Structures can show the parent of a compound that is named as a salt. Over roughly 1,900 compounds, “cell viability of compound + 1 nM pemigatinib relative to pemigatinib-only (DMSO) wells” has its median near 0.95; the lowest 2% begin near 0.22. Some of the results follow.
tested on: PDC-DUC18828; test: cell viability of compound + 1 nM pemigatinib relative to pemigatinib-only (DMSO) wells (fraction); PDC-DUC18828 is a patient-derived cholangiocarcinoma cell line; higher = less growth inhibition; conditions: first compound 1 µM; pemigatinib concentration 1 nM; 72 h
Experimental: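 Selleck Bioactive library screen in the patient-derived FGFR2 fusion-positive ICC cell line PDC-DUC18828 (500 cells/well). Each compound was tested at 1 uM with 1 nM pemigatinib, in triplicate, for 72 h. Viability was read by CellTiter-Glo and normalised to plate DMSO controls. Value is the paper's averaged normalised viability.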

Row | Compound | cell viability
1 | NC(=O)c1ncn([C@@H]2O[C@H](CO)[C@@H](O)[C@H]2O)n1 [Ribavirin] + CCN1C(=O)N(c2c(F)c(OC)cc(OC)c2F)Cc2cnc3[nH]c(CN4CCOCC4)cc3c21 [pemigatinib] | 1.01
2 | CNS(=O)(=O)Cc1ccc2[nH]cc(CCN(C)C)c2c1 [Sumatriptan Succinate] + CCN1C(=O)N(c2c(F)c(OC)cc(OC)c2F)Cc2cnc3[nH]c(CN4CCOCC4)cc3c21 [pemigatinib] | 1.02
3 | COc1cc2ncnc(Oc3cccc(NC(=O)Nc4cc(C(C)(C)C(F)(F)F)on4)c3)c2cc1OC + CCN1C(=O)N(c2c(F)c(OC)cc(OC)c2F)Cc2cnc3[nH]c(CN4CCOCC4)cc3c21 [pemigatinib] | 1.04
4 | O=C(COc1ccc(Cl)cc1)NC1CCC(NC(=O)COc2ccc(Cl)cc2)CC1 (stereo not drawn) [ISRIB (trans-isomer)] + CCN1C(=O)N(c2c(F)c(OC)cc(OC)c2F)Cc2cnc3[nH]c(CN4CCOCC4)cc3c21 [pemigatinib] | 1
5 | O=c1c(O)c(-c2ccc(O)c(O)c2)oc2cc(O)ccc12 [Fisetin] + CCN1C(=O)N(c2c(F)c(OC)cc(OC)c2F)Cc2cnc3[nH]c(CN4CCOCC4)cc3c21 [pemigatinib] | 0.93
6 | NS(=O)(=O)c1cc2c(cc1Cl)N=CNS2(=O)=O [Chlorothiazide] + CCN1C(=O)N(c2c(F)c(OC)cc(OC)c2F)Cc2cnc3[nH]c(CN4CCOCC4)cc3c21 [pemigatinib] | 0.986
7 | COc1ccc(-c2cnc3c(-c4cccc5ncccc45)cnn3c2)cc1 + CCN1C(=O)N(c2c(F)c(OC)cc(OC)c2F)Cc2cnc3[nH]c(CN4CCOCC4)cc3c21 [pemigatinib] | 0.944
8 | COc1ccc(-c2nc3cc(C4=NNC(=O)CC4C)ccc3[nH]2)cc1 (centres undefined) [Pimobendan] + CCN1C(=O)N(c2c(F)c(OC)cc(OC)c2F)Cc2cnc3[nH]c(CN4CCOCC4)cc3c21 [pemigatinib] | 0.968
9 | NCC(=O)Nc1ccc(-n2nc(C(F)(F)F)cc2-c2ccc3c(ccc4ccccc43)c2)cc1 + CCN1C(=O)N(c2c(F)c(OC)cc(OC)c2F)Cc2cnc3[nH]c(CN4CCOCC4)cc3c21 [pemigatinib] | 1.01
10 | O=C(Nc1ccccc1)c1ccccc1O [Salicylanilide] + CCN1C(=O)N(c2c(F)c(OC)cc(OC)c2F)Cc2cnc3[nH]c(CN4CCOCC4)cc3c21 [pemigatinib] | 1.02
11 | FC(F)(F)c1ccc(CNc2ccc(Cc3c[nH]c4ncc(Cl)cc34)cn2)cn1 [Pexidartinib (PLX3397)] + CCN1C(=O)N(c2c(F)c(OC)cc(OC)c2F)Cc2cnc3[nH]c(CN4CCOCC4)cc3c21 [pemigatinib] | 0.982
12 | CC(C)[C@H](CO)Nc1nc(Nc2cccc(Cl)c2)c2ncn(C(C)C)c2n1 [Purvalanol A] + CCN1C(=O)N(c2c(F)c(OC)cc(OC)c2F)Cc2cnc3[nH]c(CN4CCOCC4)cc3c21 [pemigatinib] | 0.924
13 | Cc1[nH]c(=O)c(C#N)cc1-c1ccncc1 [Milrinone] + CCN1C(=O)N(c2c(F)c(OC)cc(OC)c2F)Cc2cnc3[nH]c(CN4CCOCC4)cc3c21 [pemigatinib] | 0.984
14 | Cc1ccnc2c1NC(=O)c1cccnc1N2C1CC1 [Nevirapine] + CCN1C(=O)N(c2c(F)c(OC)cc(OC)c2F)Cc2cnc3[nH]c(CN4CCOCC4)cc3c21 [pemigatinib] | 0.973
15 | CC(=O)c1cc([N+](=O)[O-])c(Sc2cccc(Cl)c2Cl)s1 + CCN1C(=O)N(c2c(F)c(OC)cc(OC)c2F)Cc2cnc3[nH]c(CN4CCOCC4)cc3c21 [pemigatinib] | 0.967
16 | CS(=O)(=O)c1ccc(C2=C(c3ccccc3)C(=O)OC2)cc1 [Rofecoxib] + CCN1C(=O)N(c2c(F)c(OC)cc(OC)c2F)Cc2cnc3[nH]c(CN4CCOCC4)cc3c21 [pemigatinib] | 0.852
17 | Cn1c(=O)c2[nH]cnc2n(C)c1=O [Aminophylline] + CCN1C(=O)N(c2c(F)c(OC)cc(OC)c2F)Cc2cnc3[nH]c(CN4CCOCC4)cc3c21 [pemigatinib] | 1
18 | Cc1c(C(N)=O)cc([N+](=O)[O-])cc1[N+](=O)[O-] [Dinitolmide] + CCN1C(=O)N(c2c(F)c(OC)cc(OC)c2F)Cc2cnc3[nH]c(CN4CCOCC4)cc3c21 [pemigatinib] | 1.1
19 | N=C(N)N [Guanidine HCl] + CCN1C(=O)N(c2c(F)c(OC)cc(OC)c2F)Cc2cnc3[nH]c(CN4CCOCC4)cc3c21 [pemigatinib] | 0.963
20 | Cc1ncc([N+](=O)[O-])n1CC(O)CCl (centres undefined) [Ornidazole] + CCN1C(=O)N(c2c(F)c(OC)cc(OC)c2F)Cc2cnc3[nH]c(CN4CCOCC4)cc3c21 [pemigatinib] | 0.897

Row | Compound | cell viability
21 | CN1C(C(=O)Nc2ccccn2)=C(O)c2sccc2S1(=O)=O [Tenoxicam] + CCN1C(=O)N(c2c(F)c(OC)cc(OC)c2F)Cc2cnc3[nH]c(CN4CCOCC4)cc3c21 [pemigatinib] | 0.919
22 | CCc1nc(-c2cccc(C)c2)c(-c2ccnc(NC(=O)c3ccccc3)c2)s1 + CCN1C(=O)N(c2c(F)c(OC)cc(OC)c2F)Cc2cnc3[nH]c(CN4CCOCC4)cc3c21 [pemigatinib] | 0.815
23 | Cc1cccc(C)c1NC(=O)C1CCCCN1C (centres undefined) [Mepivacaine HCl] + CCN1C(=O)N(c2c(F)c(OC)cc(OC)c2F)Cc2cnc3[nH]c(CN4CCOCC4)cc3c21 [pemigatinib] | 0.892
24 | COc1cc(/C=C/C(=O)N2CCC=CC2=O)cc(OC)c1OC [Piperlongumine] + CCN1C(=O)N(c2c(F)c(OC)cc(OC)c2F)Cc2cnc3[nH]c(CN4CCOCC4)cc3c21 [pemigatinib] | 0.789
25 | CC1(COc2ccc3c(c2)ncn3-c2ccc3cccc(N4CCC(N)CC4)c3n2)COC1 + CCN1C(=O)N(c2c(F)c(OC)cc(OC)c2F)Cc2cnc3[nH]c(CN4CCOCC4)cc3c21 [pemigatinib] | 1.03
26 | COc1ccccc1-c1cc(Nc2cccc(CS(N)(=O)=O)c2)ncn1 + CCN1C(=O)N(c2c(F)c(OC)cc(OC)c2F)Cc2cnc3[nH]c(CN4CCOCC4)cc3c21 [pemigatinib] | 0.963
27 | C[C@@H](Oc1cc(-n2cnc3ccc(CN4CCN(C)CC4)cc32)sc1C(N)=O)c1ccccc1C(F)(F)F + CCN1C(=O)N(c2c(F)c(OC)cc(OC)c2F)Cc2cnc3[nH]c(CN4CCOCC4)cc3c21 [pemigatinib] | 0.271
28 | CNCC[C@H](Oc1cccc2ccccc12)c1cccs1 [Duloxetine HCl] + CCN1C(=O)N(c2c(F)c(OC)cc(OC)c2F)Cc2cnc3[nH]c(CN4CCOCC4)cc3c21 [pemigatinib] | 1.06
29 | COc1cc2c(cc1OC)CN(CCc1ccc(NC(=O)c3cc(OC)c(OC)cc3NC(=O)c3cnc4ccccc4c3)cc1)CC2 [Tariquidar] + CCN1C(=O)N(c2c(F)c(OC)cc(OC)c2F)Cc2cnc3[nH]c(CN4CCOCC4)cc3c21 [pemigatinib] | 1.02
30 | COc1cc(Cc2cnc(N)nc2N)cc(OC)c1OC [Trimethoprim] + CCN1C(=O)N(c2c(F)c(OC)cc(OC)c2F)Cc2cnc3[nH]c(CN4CCOCC4)cc3c21 [pemigatinib] | 0.906
31 | COc1ccc([C@H]2CNC(=O)C2)cc1OC1CCCC1 [S- (+)-Rolipram] + CCN1C(=O)N(c2c(F)c(OC)cc(OC)c2F)Cc2cnc3[nH]c(CN4CCOCC4)cc3c21 [pemigatinib] | 0.996
32 | Cc1nc(-c2cn3c(n2)-c2ccc(-c4cnn(C(C)(C)C(N)=O)c4)cc2OCC3)n(C(C)C)n1 + CCN1C(=O)N(c2c(F)c(OC)cc(OC)c2F)Cc2cnc3[nH]c(CN4CCOCC4)cc3c21 [pemigatinib] | 0.578
33 | CC(C)(C)c1ccc(-c2nc3ccccc3[nH]2)cc1 + CCN1C(=O)N(c2c(F)c(OC)cc(OC)c2F)Cc2cnc3[nH]c(CN4CCOCC4)cc3c21 [pemigatinib] | 0.888
34 | O=c1cc[nH]c(=S)[nH]1 [2-Thiouracil] + CCN1C(=O)N(c2c(F)c(OC)cc(OC)c2F)Cc2cnc3[nH]c(CN4CCOCC4)cc3c21 [pemigatinib] | 0.916
35 | Cc1cc(C)c(/C=C2\C(=O)Nc3ccccc32)[nH]1 [Semaxanib (SU5416)] + CCN1C(=O)N(c2c(F)c(OC)cc(OC)c2F)Cc2cnc3[nH]c(CN4CCOCC4)cc3c21 [pemigatinib] | 0.923
36 | O=C(NOC[C@H](O)CO)c1ccc(F)c(F)c1Nc1ccc(I)cc1F + CCN1C(=O)N(c2c(F)c(OC)cc(OC)c2F)Cc2cnc3[nH]c(CN4CCOCC4)cc3c21 [pemigatinib] | 0.649
37 | CC(C)c1cc(-c2ccc(F)c3ccccc23)nc(N)n1 + CCN1C(=O)N(c2c(F)c(OC)cc(OC)c2F)Cc2cnc3[nH]c(CN4CCOCC4)cc3c21 [pemigatinib] | 0.951
38 | O=C1CC2(CCCC2)CC(=O)N1CCCCN1CCN(c2ncccn2)CC1 [Buspirone HCl] + CCN1C(=O)N(c2c(F)c(OC)cc(OC)c2F)Cc2cnc3[nH]c(CN4CCOCC4)cc3c21 [pemigatinib] | 1.01
39 | CC[C@H]1OC(=O)[C@H](C)[C@@H](O[C@H]2C[C@@](C)(OC)[C@@H](O)[C@H](C)O2)[C@H](C)[C@@H](O[C@@H]2O[C@H](C)C[C@H](N(C)C)[C@H]2O)[C@](C)(O)C[C@@H](C)[C@@H]2N[C@@H](COCCOC)O[C@H]([C@H]2C)[C@]1(C)O [Dirithromycin] + CCN1C(=O)N(c2c(F)c(OC)cc(OC)c2F)Cc2cnc3[nH]c(CN4CCOCC4)cc3c21 [pemigatinib] | 0.967

From the supplement of paper PMC9588766
